Holding throughout (experiment): co-IP
In assay [1] the target is Ume6^720–843-HA (Candida albicans) (UniProt Q59MD2).
Assay [2] deals with Ume6-HA (Candida albicans) (UniProt Q59MD2).
Assay [3] concerns the target Ume6^1–759-HA (Candida albicans) (UniProt Q59MD2).
The target in assay [4] is Ume6^1–720-HA (Candida albicans) (UniProt Q59MD2).

The chains behind the UniProt entries cited, without tags or fusion partners. Where a name states a change or a piece, a line headed by the entry shows the natural chain unless it says otherwise. Residues count along the entry.
UniProt Q59MD2: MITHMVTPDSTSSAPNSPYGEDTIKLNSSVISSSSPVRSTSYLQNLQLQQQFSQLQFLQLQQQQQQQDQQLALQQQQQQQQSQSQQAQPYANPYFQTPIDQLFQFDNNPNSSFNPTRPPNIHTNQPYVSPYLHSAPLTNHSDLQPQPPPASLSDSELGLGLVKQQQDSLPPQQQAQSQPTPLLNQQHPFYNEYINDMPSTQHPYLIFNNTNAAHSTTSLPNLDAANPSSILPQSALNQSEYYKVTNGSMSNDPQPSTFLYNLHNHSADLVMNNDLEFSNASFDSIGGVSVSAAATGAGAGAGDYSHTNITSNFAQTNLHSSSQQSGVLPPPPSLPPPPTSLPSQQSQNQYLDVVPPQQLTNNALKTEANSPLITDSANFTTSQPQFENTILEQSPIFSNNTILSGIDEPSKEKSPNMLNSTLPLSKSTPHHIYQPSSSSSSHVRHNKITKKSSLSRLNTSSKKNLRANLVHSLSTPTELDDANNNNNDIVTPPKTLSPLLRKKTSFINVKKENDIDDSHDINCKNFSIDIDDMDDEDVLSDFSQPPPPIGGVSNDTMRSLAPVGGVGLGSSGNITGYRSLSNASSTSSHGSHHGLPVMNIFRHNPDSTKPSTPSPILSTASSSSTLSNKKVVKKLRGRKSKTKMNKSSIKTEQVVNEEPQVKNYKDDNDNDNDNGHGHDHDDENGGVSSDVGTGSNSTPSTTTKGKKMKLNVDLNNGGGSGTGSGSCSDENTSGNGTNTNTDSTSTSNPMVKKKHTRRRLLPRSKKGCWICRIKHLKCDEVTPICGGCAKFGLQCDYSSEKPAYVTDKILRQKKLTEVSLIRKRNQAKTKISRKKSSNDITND
Ume6^1–759-HA: residues 1-759 of Q59MD2
Ume6^1–720-HA: residues 1-720 of Q59MD2
Ume6^720–843-HA: residues 720-843 of Q59MD2
UniProt Q5ACU9: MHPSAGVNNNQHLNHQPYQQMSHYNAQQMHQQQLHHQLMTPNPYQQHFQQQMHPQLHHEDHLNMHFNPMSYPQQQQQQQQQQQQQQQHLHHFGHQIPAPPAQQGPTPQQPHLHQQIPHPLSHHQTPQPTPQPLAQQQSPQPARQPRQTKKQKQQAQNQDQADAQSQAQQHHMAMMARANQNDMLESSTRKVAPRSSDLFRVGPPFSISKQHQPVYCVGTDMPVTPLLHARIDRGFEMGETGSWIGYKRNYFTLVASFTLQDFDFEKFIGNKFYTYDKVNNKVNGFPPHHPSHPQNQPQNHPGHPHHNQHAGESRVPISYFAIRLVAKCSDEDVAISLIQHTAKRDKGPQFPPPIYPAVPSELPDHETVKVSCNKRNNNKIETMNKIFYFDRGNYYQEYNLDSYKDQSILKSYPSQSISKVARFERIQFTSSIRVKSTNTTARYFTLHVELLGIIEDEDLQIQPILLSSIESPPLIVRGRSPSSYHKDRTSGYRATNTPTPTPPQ
UniProt Q59UY7: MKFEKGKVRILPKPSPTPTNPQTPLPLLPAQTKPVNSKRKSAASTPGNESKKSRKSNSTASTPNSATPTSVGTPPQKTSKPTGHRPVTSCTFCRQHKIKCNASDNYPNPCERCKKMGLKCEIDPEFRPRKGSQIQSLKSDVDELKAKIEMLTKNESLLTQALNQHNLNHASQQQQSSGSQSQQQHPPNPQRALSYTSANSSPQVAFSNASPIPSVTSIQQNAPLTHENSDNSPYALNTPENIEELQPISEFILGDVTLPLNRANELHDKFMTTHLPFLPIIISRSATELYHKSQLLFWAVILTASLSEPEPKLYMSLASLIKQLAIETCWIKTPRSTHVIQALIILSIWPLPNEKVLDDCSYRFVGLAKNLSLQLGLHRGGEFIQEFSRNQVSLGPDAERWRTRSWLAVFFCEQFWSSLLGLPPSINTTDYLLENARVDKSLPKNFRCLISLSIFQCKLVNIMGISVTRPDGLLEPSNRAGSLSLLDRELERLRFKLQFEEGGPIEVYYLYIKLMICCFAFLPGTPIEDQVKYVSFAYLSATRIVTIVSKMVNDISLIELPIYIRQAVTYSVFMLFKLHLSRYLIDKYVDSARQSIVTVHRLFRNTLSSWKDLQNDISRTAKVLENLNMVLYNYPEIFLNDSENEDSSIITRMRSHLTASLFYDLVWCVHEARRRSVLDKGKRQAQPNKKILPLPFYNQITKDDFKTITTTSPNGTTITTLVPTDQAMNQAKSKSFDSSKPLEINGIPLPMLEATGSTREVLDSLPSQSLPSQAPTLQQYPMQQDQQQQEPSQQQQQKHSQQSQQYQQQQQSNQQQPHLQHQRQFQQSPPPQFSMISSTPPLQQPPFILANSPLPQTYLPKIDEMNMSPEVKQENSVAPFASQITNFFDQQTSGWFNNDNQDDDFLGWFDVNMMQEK
UniProt Q59QC7: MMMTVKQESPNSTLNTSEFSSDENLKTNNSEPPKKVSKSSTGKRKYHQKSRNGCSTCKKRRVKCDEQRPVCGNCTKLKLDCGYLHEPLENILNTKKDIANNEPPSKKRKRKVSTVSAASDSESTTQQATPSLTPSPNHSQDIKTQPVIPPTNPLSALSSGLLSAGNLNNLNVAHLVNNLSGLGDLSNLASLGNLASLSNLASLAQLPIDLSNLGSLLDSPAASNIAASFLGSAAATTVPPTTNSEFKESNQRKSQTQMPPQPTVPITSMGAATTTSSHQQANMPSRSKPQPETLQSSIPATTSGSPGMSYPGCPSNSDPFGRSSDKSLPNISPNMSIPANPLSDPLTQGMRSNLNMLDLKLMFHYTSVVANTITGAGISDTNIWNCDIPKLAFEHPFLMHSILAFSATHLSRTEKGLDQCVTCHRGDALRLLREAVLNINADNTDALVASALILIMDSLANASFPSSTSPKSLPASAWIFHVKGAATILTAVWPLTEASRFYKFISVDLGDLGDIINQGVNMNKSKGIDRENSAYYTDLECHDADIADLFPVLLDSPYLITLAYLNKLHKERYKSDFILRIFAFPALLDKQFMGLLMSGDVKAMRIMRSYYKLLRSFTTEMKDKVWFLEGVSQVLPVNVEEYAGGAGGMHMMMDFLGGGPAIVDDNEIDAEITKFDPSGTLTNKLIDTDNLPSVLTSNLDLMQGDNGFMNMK

These are yes or no findings as the source states them, for the method shown. In cells and extracts the contact can be indirect. Some entries that bind do so weakly or less than the wild type.

In PMC12408341 one finds binding data, which are given here for three substances.

As to Ndt80-FLAG (from UniProt Q5ACU9 1-504), the binding result is reported as “binds” in assay [1], “binds” in assay [2], “no binding” in assay [3] and “no binding” in assay [4].
Regarding Sef1-FLAG (from UniProt Q59UY7 1-917), the binding result in assay [2] is “no binding”.
As for Upc2-FLAG (from UniProt Q59QC7 1-712), the binding entry in assay [1] is “binds”; in assay [2], “binds”; in assay [3] it was “no binding”; in assay [4], “no binding”.
